Among the data in PMC12136788 are binding signal values, retold here.

Positions count from the first letter of the chain named. The list shows a part of the results.

T1: UNK ZnF1-3 (human, UniProt Q9C0B0 31-174)
T1 sequence: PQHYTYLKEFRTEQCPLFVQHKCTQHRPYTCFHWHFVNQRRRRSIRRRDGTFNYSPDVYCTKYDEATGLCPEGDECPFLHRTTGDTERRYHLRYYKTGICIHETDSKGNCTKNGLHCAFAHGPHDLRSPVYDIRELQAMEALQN

B1: chr3:176767854:176767855:-_ENSG00000177565_ENST00000430069|hu_hu|hu_hu_hu_mus_False|98_108 (ssRNA)
RNA: GGGAGUUCUACAGUCCGACGAUCGACAUCCUUGUUGCUUGGAACAUCCUGCCCUCCUUCCCGUAUGCAGUGUCUAAGCACGAGCUGCGUAGGGCCACUCGUGCUGUUCUCACUGAGGUUCCAGAUUCUUGCCGUGGAGUCUCCCAACAGAGGAUUGAGCAUCA
B2: 128987363_128987794_1838_CDS_ENSG00000181789_ENST00000314797|human|control|control (ssRNA)
RNA: GGGAGUUCUACAGUCCGACGAUCUGCUGUGAUGGGGGUACUUUCUGUUCUCUGCUCUGCCAUGGGCGCCGUGGCCAGGGGCACAGACUUGAGGUCAAAAGGUUUUUCUGAUGGUUCUAGAGUGUACUGCUGCAGAGCCCUCUCCAACAGAGGAUUGAGCAUCA
B3: chr11:77336104:77336105:-_ENSG00000074201_ENST00000525064|hu_mus|hu_hu_hu_mus_False|28_108 (ssRNA)
RNA: GGGAGUUCUACAGUCCGACGAUCCUCGCACAUUGCAGUGAACAUCGCCUCCAAUGCUGACUUAUCACUGGGCACAAAUCGAAAUUCAGAAAUGGGUUCAACAUCAUCAUCACUGUCCUCAUCUUCAUCAGAGAGAGGUUCUUUCAACAGAGGAUUGAGCAUCA
B4: chr8:117878989:117878990:-_ENSG00000164754_ENST00000297338|hu_hu|hu_hu_hu_mus_True|8_98 (ssRNA)
RNA: GGGAGUUCUACAGUCCGACGAUCCCAGAGGCCCUCGUUUACUGAGAACAAAAUGUGCGUAGAACAUUUUUCUUAUUUGCUAUGAAAUAAGAAGAAACCUGGAUCUCGGCGGGGAGCCGGGAGGGGUUGGGUGGCCCGGGAGGGCAACAGAGGAUUGAGCAUCA
B5: chr5:138634757:138634758:+_ENSMUSG00000036968_ENSMUST00000110934|mus_mus|FALSE|FALSE (ssRNA)
RNA: GGGAGUUCUACAGUCCGACGAUCAUAUAGCCCACAUGUCUACCCCAUCUAACCCGAGUAUUGCUUCACUCUCUUCCAGCAUCCUGUUCUUAUUCACAGAUUGAUGGUAUACGGCCUCAUGUUUGCAGUGUAUAUUGGUUCUUGCAACAGAGGAUUGAGCAUCA
B6: chr3:176767854:176767855:-_ENSG00000177565_ENST00000430069|hu_hu|hu_hu_hu_mus_False|38_88 (ssRNA)
RNA: B1 RNA with G36A, U39G, A42C, A45G, C48U, C99G
B7: chr14:56483160:56483161:+_ENSMUSG00000075592_ENSMUST00000168479|mus_mus|FALSE|FALSE (ssRNA)
RNA: GGGAGUUCUACAGUCCGACGAUCAAUUCCUUUAUCUCCCACAGAUGUUGAAGACUGCCCUACUUGCAGAAGUCCCGGGCUAACCUUCUCUUUGAUACCACAACCCCCUGGCACCACCGAUAAACUGAUGAUUUUGGAGGGAAUCAACAGAGGAUUGAGCAUCA
B8: chr1:215793774:215793775:+_ENSG00000136636_ENST00000259154|hu_hu|motif|central (ssRNA)
RNA: GGGAGUUCUACAGUCCGACGAUCAUAGGGAACUUUCUUUCUUCCAAGGAAUCCUCCCCCUUCAAAUCCUCCUUUCUUCCGGAACUCGGUUUUAUUUUCAUUUUCAUCUUCUGAUGACCUUUUCUUGGAUUCUGAAAAACCUUCCAACAGAGGAUUGAGCAUCA
B9: chr17:60744165:60744166:+_ENSG00000011028_ENST00000303375|hu_hu|FALSE|FALSE (ssRNA)
RNA: GGGAGUUCUACAGUCCGACGAUCGUUGAGGUACUUGAGGGGCGAGUUGUCCGACCACUGCCAGCCUCCGCUCGUGUCCAAGUCAUUCAAGCCGAUCCACAGGGUGGAGCUGUACCCAGUGAGGAGGCCGUUGAUGUAGGUCUGCAACAGAGGAUUGAGCAUCA
B10: chr7:56126341:56126342:+_ENSG00000146731_ENST00000540286|hu_mus|hu_hu_hu_mus_True|88_108 (ssRNA)
RNA: GGGAGUUCUACAGUCCGACGAUCCAUAUUUCUCCUUUUGGCUCUGCGCAGAGCAACGAUCCCUUCUUUCGCAAGGGCAUCUAAGGAAAAGGGGUCAAUCCCCUUUUGAUUAAUAACGACAAAUCCUUUAUCUGAGUCACCACACAACAGAGGAUUGAGCAUCA
B11: chrX:98862621:98862622:+_ENSMUSG00000034160_ENSMUST00000044475|mus_hu|mus_mus_mus_hu_False|28_58 (ssRNA)
RNA: GGGAGUUCUACAGUCCGACGAUCCUGCAUCUCCUUUAGAGUGUUUCCCAUAUUAGAGUAGGCAUCAGCAAAGGUAGGACUAAUUCGAAUAGCCUCCUUAUAAUGCAUCAGUGCUUCCUGCAGUUUUCCCUGCUGCUGCAGUACCAACAGAGGAUUGAGCAUCA
B12: chr7:7679991:7679992:-_ENSG00000106399_ENST00000396682|hu_hu|hu_hu_hu_mus_False|58_58 (ssRNA)
RNA: GGGAGUUCUACAGUCCGACGAUCUGGGAUGAAUCUUUUCCAGCUUCCCCACGAAGCACACGGGCCGGUCGAUAUACUGAGCUAGCAUGCUGGCGUUGACGCGCGCUUUGGGGAGCUGCAUUAUGUCCUCCAUGAUUCUGCCGCCAACAGAGGAUUGAGCAUCA
B13: 33346105_33346518_650_3pUTR_ENSG00000198042_ENST00000360128|human|control|control (ssRNA)
RNA: GGGAGUUCUACAGUCCGACGAUCUACUAAGCCGGACCCGUUCCCAGAGACGCCGAGGAAAAGCCGCUCGUUCUAUAACCUUCAUAUACAAGUAGCACUGUCCUUUCUCUUCUUUAAUAGUGGCAUACUGACUAUUUGCCAGGGCAACAGAGGAUUGAGCAUCA
B14: chr6:41757443:41757444:+_ENSG00000214736_ENST00000398881|hu_mus|hu_hu_hu_mus_False|38_38 (ssRNA)
RNA: GGGAGUUCUACAGUCCGACGAUCGAACCGUGCAGAGGCAACAUCUCAGCCGACACUGGGGGAUGGGGGGGCAGUGGGGGGGGGUUCAGGCAAGGAGAAGAAAAGUGCUUCAGCUGCCACUCAGGUAGGAUCUUGUGGUCACAGCAACAGAGGAUUGAGCAUCA
B15: chr3:176767854:176767855:-_ENSG00000177565_ENST00000430069|hu_hu|hu_hu_hu_mus_False|88_108 (ssRNA)
RNA: B1 RNA with U39G, A42C, A45G, C48U
B16: chr8:121455507:121455508:-_ENSG00000172172_ENST00000306185|hu_mus|motif|central (ssRNA)
RNA: GGGAGUUCUACAGUCCGACGAUCUGCAGUUUGUUGGAUGCUAUAACCGCAAGUUUGCCAGGGGGCUGCAUUUUGCCAUCGGAGAGAUACCACAUUCGAGCAAAAGUGGCCCAUUGCUGGGGCGCCCUAGAGAAGCUGGACAUGCAACAGAGGAUUGAGCAUCA
B17: chrX:45232703:45232704:-_ENSMUSG00000031099_ENSMUST00000088973|mus_hu|motif|central (ssRNA)
RNA: GGGAGUUCUACAGUCCGACGAUCAGAUGGGACCCAUCGUUUAAAUUCAUUCAUCCAGUUGUGUAAAGUAGACUUUGGAACGGAAACCAUGUGAGGUCCAGGAAUAUUUCGGUAGUGUUUCAGGUAACCAAGCAAAGCAAUUGUCAACAGAGGAUUGAGCAUCA
B18: 4331192_4342889_2322_3pUTR_ENSMUSG00000054611_ENSMUST00000075856|mouse|control|control (ssRNA)
RNA: GGGAGUUCUACAGUCCGACGAUCCUUUUUGGCCACUGUACUAUAGGGACUCCAGUGAGGGCUAACUUGGGAUCGCUACUGGCAAGUUCUUCCAGCAAAAUCUUUACAUCAGCAAUCAGAGCAUCUUCGUCUUCUAUUCCUGUGCAACAGAGGAUUGAGCAUCA
B19: 106643454_106643786_2940_ncRNA_ENSMUSG00000020719_ENSMUST00000133426|mouse|control|control (ssRNA)
RNA: GGGAGUUCUACAGUCCGACGAUCAGAGUAGCCUCUGUCAUAGUUUUCCCUGUCUCUAAAGGUAUUAAAUCCACCCCUUUUGCCUGCAGAGUAUCUGUCACGACGAUCGUCCUUCAUGCCUCCUCUACCCCUGGAACGACCUGACAACAGAGGAUUGAGCAUCA
B20: chr6:91700303:91700304:+_ENSMUSG00000030096_ENSMUST00000032185|mus_hu|FALSE|FALSE (ssRNA)
RNA: GGGAGUUCUACAGUCCGACGAUCGAGAACUGGAGUGAUCACAGCCCAGCUGUACUUCAUCCAGGGCCCGGGCCGAUAGCCAAUCAUGUCCUCAAUACCAUCAUAAAGGUUAUCACCUCCAUAUAUCCAGGCAAUAACAAAACACAACAGAGGAUUGAGCAUCA
B21: chr22:46125322:46125323:+_ENSG00000130638_ENST00000252934|hu_mus|FALSE|FALSE (ssRNA)
RNA: GGGAGUUCUACAGUCCGACGAUCAAAGAUAGAGAUGUCAUCCUUUGUCAGCUGCUCCUCACCCACUAGCUUGGCUAUCACUAUGUCUAACAGUGUGAUCCUUUCCUGGUUGCUGAGUUUGCCAUACAUAGCUUCCACCAGUUCCAACAGAGGAUUGAGCAUCA
B22: chr11:109522620:109522621:+_ENSMUSG00000020612_ENSMUST00000049527|mus_mus|FALSE|FALSE (ssRNA)
RNA: GGGAGUUCUACAGUCCGACGAUCAUCCCCUUCAUCACCUUGCUGAAUAACCGUCUCUCCAGCAAUAAAGGAGACUGGAAACAUAGCAUCAAAAAUGUCACUUCUCUCGUUAUCAUCAAGGUGUGAAAACAGCACAUUCUUUUCCAACAGAGGAUUGAGCAUCA

In this assay the target is T1, UNK ZnF1-3. Nature of the assay: nsRBNS (natural sequence RNA bind-n-seq); RBNS binding buffer (assumed for nsRBNS): 25 mM Tris pH 7.5, 150 mM KCl, 3 mM MgCl2, 0.01% Triton X-100, 500 ug/ml BSA, 20 U/ml SUPERase-In, 4 C; UNK is unkempt and MSI1 is Musashi-1; names of the RNAs are library labels; protein concentration not given here; high values mean tight binding.
B1: the binding signal amounted to 0.553 enrichment R. B2 returned a binding signal of 0.853 enrichment R.

B3 yielded a binding signal of 1.08 enrichment R. The same measure for B4: 1.59 enrichment R. The result for B5 reads 0.696 enrichment R. Molecule B6 had a binding signal of 0.49 enrichment R. The same measure for B7: 0.927 enrichment R; for B8: 0.42 enrichment R; for B9: 0.928 enrichment R.

Take B10: the binding signal stood at 1.01 enrichment R. The same measure for B11: 0.915 enrichment R; for B12: 0.495 enrichment R; for B13: 1.13 enrichment R.

The molecule B14 came in with a binding signal of 1.29 enrichment R. The result for B15 reads 0.409 enrichment R; that for B16, 1.1 enrichment R; that for B17, 1.33 enrichment R. On to B18, for which the binding signal amounted to 1.33 enrichment R.

With B19, the binding signal came out at 1.1 enrichment R. As for B20, the binding signal was determined as 0.92 enrichment R. The result for B21 reads 0.734 enrichment R; that for B22, 0.939 enrichment R.
